Assay results taken from the RNAGym collection of RNA variant scans (doi:10.1093/nar/gkz1192).
The source gives no read counts; variants with many changes may rest on few reads.

B1: CPEB3 Ribozyme (parent)
chain: UAACAGGGGGCCACAGCAGAAGCGUUCACGUCGCAGCCCCUGUCAGAUUCUGGUGAAUCUGCGAAUUCUGCUGUAUAUCUC

Variants of: B1
Assay: self-cleavage, relative activity (ratio to wild type); higher = more cleavage; in vitro, sequencing
Method in brief: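 For each CPEB3 ribozyme variant, relative activity is its cleaved/total read fraction divided by the unmutated ribozyme's. Barcoded error-prone PCR libraries were transcribed by T7 RNA polymerase (5 hours, 37°C) and held in DNase I for 15 min before an EDTA stop, with cleavage occurring throughout. Template-switching reverse transcription and Illumina sequencing were used to read the RNAs. A 5-read minimum applied, and results are the mean of three batches.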

Row | Variant | self-cleavage
1 | G6A A47G A57G | 0.38
2 | G6A A47G U67A | 0.08
3 | G6A A47U A65G U74C | 0.07
4 | G6A A47U G53C U54C | 0.21
5 | G6A A47U U67C | 0.13
6 | G6A A56U U67C | 0.07
7 | G6A A56U U69C | 0.13
8 | G6A A57G U60C | 0.13
9 | G6A A57G U66C U67C | 0.2
10 | G6A A57G U74A | 0.57
11 | G6A C12A A20C A35G A64G U72C | 0.03
12 | G6A C12U A56G U60C C62A | 0.15
13 | G6A C12U C23U A56G C62G | 0.23
14 | G6A C12U G24C A45U | 0.06
15 | G6A C12U U48A A56G C62A | 0.22
16 | G6A C14G A20G U72A U76C | 0.15
17 | G6A C14U A28G A64U G73A | 0.07
18 | G6A C14U A35C | 0.3
19 | G6A C17G A35G U41A C44G A45G G53U | 0.22
20 | G6A C23G G52C U69C U78C | 0.16
21 | G6A C29U C40U U67A C81U | 0.1
22 | G6A C32U U43A A47C | 0.05
23 | G6A C34U A77U | 0.31
24 | G6A C34U U51A | 0.26

Row | Variant | self-cleavage
25 | G6A C37G A64G U80C | 0.95
26 | G6A C40U U41C U72A | 0.31
27 | G6A C62U A64U U72C | 0.08
28 | G6A G7U A15G A18G U58A | 0.12
29 | G6A G8A A15G U54G U60A U80C | 0.06
30 | G6A G8U A13G A56U | 0.17
31 | G6A G9A A21G U25C A56U U60C C79U | 0.05
32 | G6A G9C A28U U54G U69A | 0.06
33 | G6A G10A C40U | 0.3
34 | G6A G10C A13G U54C U69C U72G | 0.06
35 | G6A G10U A21G A57C | 0.05
36 | G6A G10U C12U U26C | 0.05
37 | G6A G19U U48C A65G | 0.26
38 | G6A G19U U51C G52U G63A | 0.07
39 | G6A G24U C29U U43A A57G U60C U76C | 0.06
40 | G6A G30A U31A A45G | 0.09
41 | G6A G36A U60C U76C | 0.23
42 | G6A G36C G52U A65U | 0.17
43 | G6A G52A G63A A77G | 0.39
44 | G6A G52C U72C U80C | 0.68
45 | G6A G61A U67C | 0.16
46 | G6A G73A U74C | 0.95
47 | G6A U25A A64U | 0.11
48 | G6A U25A C27U A47U U60C | 0.14

Row | Variant | self-cleavage
49 | G6A U25A U76C | 0.07
50 | G6A U25C A56G | 0.08
51 | G6A U25C A57U | 0.22
52 | G6A U25C A65G C79A | 0.39
53 | G6A U25C C32G G36A A45U A65G U67C | 0.04
54 | G6A U25C U31G C32A U80A | 0.33
55 | G6A U25C U49A | 0.09
56 | G6A U25G A28U C34U A65G U80C | 0.07
57 | G6A U26A U31C U54C | 0.13
58 | G6A U26C U43A A56G U60A A65G | 0.08
59 | G6A U31A A35G A57G C68G | 0.06
60 | G6A U31A A45U U60A | 0.17
61 | G6A U31A A57G U67C | 0.09
62 | G6A U31A U60C U67C | 0.18
63 | G6A U31C U49C A56U A64C | 0.05
64 | G6A U41C U60C G73A | 0.08
65 | G6A U41C U74A C81A | 0.39
66 | G6A U43A A45G U78C | 0.19
67 | G6A U43A U78C | 0.39
68 | G6A U43C U48A U67C A77U | 0.15
69 | G6A U48C U78A | 0.25
70 | G6A U49C U54G U58A U78G | 0.04
71 | G6A U54A U60A | 0.22
72 | G6A U54C U69C U72C | 0.05

Row | Variant | self-cleavage
73 | G6A U67C U74C | 0.09
74 | G6A U69A U76C | 0.51
75 | G6A U72C A77G | 0.63
76 | G6C A15G A35U | 0.33
77 | G6C A15U U80C | 0.46
78 | G6C A18G A20G U41C A64G A75G U78A | 0.02
79 | G6C A18U A35G U49C A56G | 0.03
80 | G6C A35U U48C C68G | 0.2
81 | G6C A57G A65U U69A U80C | 0.06
82 | G6C C39G U72C | 0.1
83 | G6C G22U A64U | 0.26
84 | G6C U51A C62U U80A | 0.13
85 | G6C U72G G73C U78A U80C | 0.43
86 | G6U A13G A28G A56G | 0.34
87 | G6U A13G A75U | 0.45
88 | G6U A13U A28G U54C U74A | 0.07
89 | G6U A13U A35G A75G | 0.51
90 | G6U A13U G53A U78C | 0.13
91 | G6U A13U U48C | 0.24
92 | G6U A15G U72C | 0.51
93 | G6U A18G A35U U72C | 0.17
94 | G6U A18G U69C | 0.17
95 | G6U A20G A35U A45G U69A | 0.06
96 | G6U A20G G22A C38A U49C G55A U78C | 0.03

Row | Variant | self-cleavage
97 | G6U A21G G36A | 0.05
98 | G6U A21G U25C A56G U58A U78A U80C | 0.23
99 | G6U A21G U41C | 0.1
100 | G6U A28G A45U | 0.09
101 | G6U A28G U54C | 0.37
102 | G6U A28G U60A U78C U80C | 0.07
103 | G6U A35G A45U | 0.13
104 | G6U A35G U58C U69G U76C | 0.15
105 | G6U A35G U60A U80C | 0.21
106 | G6U A35G U66C | 0.28
107 | G6U A35U U41A U69C U72A | 0.1
108 | G6U A35U U60C U67A C68A U69A U80C | 0.04
109 | G6U C11G U25C U54A U58C C71U | 0.08
110 | G6U C14U U66C U67C | 0.06
111 | G6U C23A U31C | 0.3
112 | G6U C29U A56G A65G | 0.05
113 | G6U C32U A35U U67A | 0.05
114 | G6U G7A A35C U51G U60C U66C U78C | 0.06
115 | G6U G8U A45U A56U U80C | 0.24
116 | G6U G8U U25A U31C | 0.22
117 | G6U G16C U26A U48A U78C | 0.05
118 | G6U G16C U60C U69C | 0.06
119 | G6U G24A A77G | 0.06
120 | G6U G33A A56G U67C | 0.18

Row | Variant | self-cleavage
121 | G6U G36A U67G | 0.07
122 | G6U G52U A64U U69C | 0.08
123 | G6U G63A U72C | 0.34
124 | G6U U25C C32U U41A | 0.07
125 | G6U U25C U41A U66C | 0.08
126 | G6U U25C U60C | 0.27
127 | G6U U25G C32U A47G U67C | 0.26
128 | G6U U26A A28G U41A A45G U72A | 0.13
129 | G6U U48A U60A U80A | 0.06
130 | G6U U49A U78C | 0.25
131 | G6U U51C U60C U80C | 0.08
132 | G6U U54A C71A U74C | 0.19
133 | G7A A13C G16U A28G U60C U72A U78G | 0.04
134 | G7A A13G A18U A20G | 0.07
135 | G7A A13G A57G U69A | 0.27
136 | G7A A13G C40U | 0.61
137 | G7A A13G G42U U49C C59U | 0.2
138 | G7A A13G U25A A64G | 0.31
139 | G7A A13U A28G U60A U78C | 0.07
140 | G7A A13U C40U A47G U54A U69A | 0.06
141 | G7A A13U U43C A64G U66C U76C A77G | 0.08
142 | G7A A13U U54C C62U | 0.06
143 | G7A A15C A21G U43C A57U U80C | 0.03
144 | G7A A15G A56U | 0.3

Row | Variant | self-cleavage
145 | G7A A15G C23U | 0.21
146 | G7A A15G U26A G42A U54G A64U | 0.05
147 | G7A A15G U31C A35U U41A U58C U66A | 0.04
148 | G7A A15U C23U A47G U48A | 0.02
149 | G7A A15U G16C U26C U80C | 0.37
150 | G7A A18G A20G A56G U69C | 0.12
151 | G7A A18G A20U U26A C62U U69C | 0.03
152 | G7A A18G C29A U74C | 0.07
153 | G7A A18G G24A A35U U67C | 0.05
154 | G7A A18U U25C | 0.07
155 | G7A A20G U31G A35G | 0.07
156 | G7A A20U G36A C40G | 0.05
157 | G7A A20U U26A C37A U49C | 0.15
158 | G7A A21C U41A U49G A57U U76A C79U | 0
159 | G7A A21G U26C C59A U60A | 0.05
160 | G7A A21G U48A U80C | 0.38
161 | G7A A21U A28U U54G A77U U80G | 0.05
162 | G7A A21U A47G | 0.06
163 | G7A A35U A47C A56U U72C | 0.12
164 | G7A A35U U41A U72C | 0.05
165 | G7A A45C U51A A64G A75G | 0.06
166 | G7A A45C U78G | 0.07
167 | G7A A47G U49C | 0.26
